Experimental data reported in PubChem BioAssay AID686978 (National Center for Advancing Translational Sciences (NCATS), 2013).
Values joined by “and” are separate entries in the source; they are usually repeats but may differ in a detail not shown here. Identical values can stand only once. Screen size: about 420,000 compounds; about 64,000 (15%) were called active. The shares of active, inactive and inconclusive entries below differ from those in the screen. The call rests on the fitted dose curve; in most records, active means well fitted inhibition curve with a large enough effect; inconclusive means small, poorly fitted or top-dose-only effect; inactive means flat fitted curve, though single readings scatter. Potencies beside an inconclusive call are fits to weak or partial responses and may not hold up.

Test: qHTS for Inhibitors of human tyrosyl-DNA phosphodiesterase 1 (TDP1): qHTS in cells in absence of CPT; further: nearly all actives have a fitted effect of over 55% in size
Conditions: DT40 Tdp1-/- hTDP1 cells, no CPT, ATP luminescence, 48 h; activity change, negative = growth inhibition: at 46.2 µM (top of the series)
Method in brief: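 Growth of hTDP1-complemented DT40 Tdp1-knockout cells is measured by ATP luminescence after at least 48 hr compound exposure at 37 °C, with DMSO substituting for the 20 nM CPT used in the parallel screen.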
On the % scale 0 is the no-effect control and ±100 the full control effect; potency means the concentration at half of the fitted maximal effect; tags describe the fitted curve by direction and shape.

| SMILES | Potency | activity change, negative = growth inhibition |
| --- | --- | --- |
| Cc1cccc(C)c1OCC(=O)Nc1ccncc1 | inconclusive: 23.1 µM [inhibitor, single point] |  |
| CCCOC(=O)c1ccc(NC(=O)c2cc(OC)c(OC)c(OC)c2Br)cc1 | inconclusive: 25.9 µM [inhibitor, single point] |  |
| Cc1c(C(=O)N2CCCC2)oc2c1-c1nn(CC(=O)NCc3cccc(Br)c3)cc1CC2 | inconclusive: 20.6 µM [inhibitor, single point] |  |
| COc1ccc(CN(C(=O)c2ccco2)c2ccc(C)cc2)cc1OC | inconclusive: 20.6 µM [inhibitor, single point] |  |
| Cc1ccc(NC(=O)CCOc2ccccc2)c(C)c1 |  | inconclusive: -31.6% [inhibitor] |
| O=C1NC[C@H](CC2CCCCC2)N(CCC23CC4CC(CC(C4)C2)C3)C1=O | inactive |  |
| CCCC(=O)C1CCN(Cc2ccccc2)CC1 | inactive |  |
| COc1ccc2nc(N3C(=O)C(O)=C(C(=O)c4ccco4)C3c3ccccc3OC)sc2c1 (stereo not given) | inconclusive: 23.1 µM [inhibitor, single point] |  |
| Cc1ccccc1Cn1c(O)c(N=NC(=S)Nc2ccccc2F)c2ccccc21 | active: 6.51 µM |  |
| O=c1c2ccccc2nc(SCc2cc(F)cc3c2OCOC3)n1Cc1ccco1 | inconclusive: 16.4 µM [inhibitor, partial curve] |  |
| CC1C(=O)N2CCCc3cc(NS(C)(=O)=O)cc1c32 (stereo not given) | inconclusive: 18.4 µM [inhibitor, single point] |  |
| COc1ccccc1C(=O)Nc1ccc(OC(C)C(=O)N2CCOCC2)cc1 (stereo not given) | inactive |  |
| COc1cc(NC(=O)c2cccs2)c(C(=O)OCC(=O)NC(=O)NC(C)(C)C)cc1OC | inconclusive: 16.4 µM [inhibitor, single point] |  |
| O=c1cnc2cnc(OCc3ccccc3)nc2n1Cc1ccc(F)cc1 | inconclusive: 20.6 µM [inhibitor, partial curve, poor fit] |  |
| Fc1ccccc1/C=N/Nc1nc2ccccc2o1 | inactive |  |
| CNC(=O)COC(=O)c1cccnc1SC | inactive |  |
| CCC(C)(C)NC(=O)C(c1cccnc1)N(C(=O)c1csnn1)c1ccccc1 (stereo not given) | inactive |  |
| O=c1[nH]c(Nc2ccc3c(c2)OCCO3)nnc1Cc1ccccc1 | inconclusive: 13 µM [inhibitor, partial curve] |  |
| CN(C)S(=O)(=O)Oc1ccc(C(=O)Nc2cccc(C(F)(F)F)c2)cc1 | active: 14.6 µM |  |
| O=C(N/N=C/c1ccccc1)c1sccc1OCc1ccc(F)cc1 | inconclusive: 32.6 µM [inhibitor, partial curve, poor fit] |  |
| CCCCCCC1C(C#N)=C(N)OC2=C1C(=O)CC(C)(C)C2 (stereo not given) | inconclusive: 29.1 µM [inhibitor, single point] |  |
| CCCCNc1nccnc1-c1cccc(C=O)c1 | inconclusive: 29.1 µM [inhibitor, single point] |  |
| CCCc1nnc(SCC(=O)Nc2nc(C)cs2)n1CCOC | inactive |  |

| SMILES | Potency | activity change, negative = growth inhibition |
| --- | --- | --- |
| CCc1nc2c(OCC(=O)c3ccc(F)cc3)cccn2c1N(C)C(=O)C(C)C | inconclusive: 25.9 µM [inhibitor, single point] |  |
| Cc1ccnc(NC(=O)COc2ccc3oc4c(c3c2)CCCC4)c1 | active: 11.6 µM |  |
| Cc1ccc(S(=O)(=O)N2CCN(C(=O)COC(=O)/C=C/c3ccccc3[N+](=O)[O-])CC2)c(C)c1 | inconclusive: 29.1 µM [inhibitor, single point] |  |
| CCCCN(Cc1ccccc1)C(=O)C1CCN(Cc2sccc2C)CC1 | inconclusive: 2.06 µM [inhibitor, partial curve] |  |
| O=C(Cn1nnc(-c2ccc(CN3CCOCC3)cc2)n1)N(c1ccccc1)c1ccccc1 | active: 20.6 µM |  |
| COc1ccc(-c2c(C)[nH]n3c(=O)c(Cc4ccccc4)c(C)nc23)cc1 | active: 20.6 µM |  |
| CCOc1ccc(N(C)S(=O)(=O)c2ccc3c(c2)C(C)(C)C(=O)N3C)cc1 | inconclusive: 11.6 µM [inhibitor, partial curve] |  |
| CCOc1ccc(N2CC(c3nc(-c4cc(OC)c(OC)c(OC)c4)no3)CC2=O)cc1 (stereo not given) | active: 25.9 µM |  |
| CCOC(=O)C1CCCN(S(=O)(=O)c2ccc(S(N)(=O)=O)cc2)C1 (stereo not given) | inconclusive: 20.6 µM [inhibitor, single point] |  |
| Cn1c(=O)oc2cc(S(=O)(=O)CCC(=O)NCc3ccccc3)ccc21 | inactive |  |
| Cc1ccc(C)c(NC(=O)C2CCCN(S(=O)(=O)c3c(C)noc3/C=C/N(C)C)C2)c1 (stereo not given) | inconclusive: 29.1 µM [inhibitor, single point] and inconclusive: 1.64 µM [inhibitor, full curve] |  |
| CCN(CC)C(=O)c1c(Cl)nc(C)c([N+](=O)[O-])c1C | inactive |  |
| O=C(Cn1nc(-c2ccccc2)ccc1=O)Nc1ccc(NC(=O)c2ccccn2)cc1 | inconclusive: 11.6 µM [inhibitor, partial curve, poor fit] |  |
| Cc1ccc(-n2nnc3c(sc4nc(C)c(C)cc43)c2=O)cc1Cl | inactive |  |
| CCOc1cc(CNCc2ccncc2)cc(Br)c1OCc1ccccc1F | inconclusive: 23.1 µM [inhibitor, partial curve, poor fit] |  |
| CSc1ncccc1C(=O)OCC(=O)N1CC2(C)CC1CC(C)(C)C2 (stereo not given) | inconclusive: 29.1 µM [inhibitor, single point] |  |
| CCc1nc2ccc(C(=O)NCCCn3ccnc3)cn2c1N(C)Cc1ccc(OC)cc1 | active: 14.6 µM |  |
| COC(=O)c1ccc(CN2CCCC(CCC(=O)NCc3ccc(C)o3)C2)cc1 (stereo not given) | inconclusive: 20.6 µM [inhibitor, single point] |  |
| O=C(NC1CCCC1)c1c[nH]c2ccc(S(=O)(=O)Nc3cccc(C(F)(F)F)c3)cc2c1=O | active: 20.6 µM |  |
| O=C(c1csnn1)N1CCC2(CCN(Cc3ccccc3)CC2)CC1 | inconclusive: 0.082 µM [inhibitor, full curve] |  |
| COC(=O)c1c(N2C(=O)CC(Sc3ccccc3C(=O)O)C2=O)sc(C)c1C (stereo not given) | inconclusive: 29.1 µM [inhibitor, single point] |  |
| COc1cccc2c1C(=O)c1c(O)c3c(c(O)c1C2=O)CC(O)(C(=O)CO)CC3OC1CC(N(C)C)C(O)C(C)O1 (stereo not given) | active: 0.146 µM |  |
